# Measured values: PubChem BioAssay AID504339 (National Center for Advancing Translational Sciences (NCATS), 2011)
# Screen size: about 390,000 compounds; about 17,000 (4.4%) were called active. Inconclusive means that the source gave no clear call. Such entries were picked first, then a sample of the others. Calls come from the whole dose curve; as a rule, active = well fitted inhibition curve with a large enough effect; inconclusive = small, poorly fitted or top-dose-only effect; inactive = no such curve, though single readings can be large or run the other way. Potencies of inconclusive entries are doubtful fits and often do not repeat.
# Biological target: Lysine-specific demethylase 4A (Homo sapiens) (UniProt O75164)
# Chain of UniProt O75164 (O75164 whole entry, looked up, the tested form may be a part): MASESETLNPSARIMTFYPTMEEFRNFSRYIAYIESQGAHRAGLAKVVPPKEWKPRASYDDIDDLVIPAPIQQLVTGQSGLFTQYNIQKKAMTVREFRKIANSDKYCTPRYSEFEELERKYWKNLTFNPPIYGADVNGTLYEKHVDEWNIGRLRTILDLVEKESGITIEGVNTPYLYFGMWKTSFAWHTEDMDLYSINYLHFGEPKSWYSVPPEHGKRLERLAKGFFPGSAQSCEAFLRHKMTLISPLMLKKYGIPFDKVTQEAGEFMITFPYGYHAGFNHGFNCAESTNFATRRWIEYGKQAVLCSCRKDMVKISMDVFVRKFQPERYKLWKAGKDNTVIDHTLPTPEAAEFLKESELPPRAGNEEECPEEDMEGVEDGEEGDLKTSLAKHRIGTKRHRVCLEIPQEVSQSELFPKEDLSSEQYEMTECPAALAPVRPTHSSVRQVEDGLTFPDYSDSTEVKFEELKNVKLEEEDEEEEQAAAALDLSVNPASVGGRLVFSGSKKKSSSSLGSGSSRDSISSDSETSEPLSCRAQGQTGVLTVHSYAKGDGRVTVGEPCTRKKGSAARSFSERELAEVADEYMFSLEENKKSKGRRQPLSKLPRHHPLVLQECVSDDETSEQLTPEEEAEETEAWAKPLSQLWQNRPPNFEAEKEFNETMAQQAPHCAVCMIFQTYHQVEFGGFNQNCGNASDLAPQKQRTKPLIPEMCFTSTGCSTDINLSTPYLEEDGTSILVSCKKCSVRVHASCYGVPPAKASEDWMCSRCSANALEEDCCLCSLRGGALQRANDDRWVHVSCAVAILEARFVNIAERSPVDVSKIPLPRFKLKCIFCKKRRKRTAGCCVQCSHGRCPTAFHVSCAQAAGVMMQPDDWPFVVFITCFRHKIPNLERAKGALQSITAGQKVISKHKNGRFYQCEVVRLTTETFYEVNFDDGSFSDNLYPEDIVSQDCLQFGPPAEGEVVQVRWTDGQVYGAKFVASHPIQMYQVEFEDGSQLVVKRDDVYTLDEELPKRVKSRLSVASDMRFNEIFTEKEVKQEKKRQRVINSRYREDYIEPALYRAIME
# Assay: qHTS Assay for Inhibitors of JMJD2A-Tudor Domain; note: nearly all actives have a fitted effect of over 50% in size
# Settings: AlphaScreen JMJD2A-Tudor / H3K4me3 peptide binding; activity change, negative = inhibition: at 114 µM (top of the series)
# % is set by controls: 0 for no effect and ±100 for the full control effect; potency is the fitted concentration of half-maximal effect; tags give direction and shape of the fitted curve.
SMILES,Potency,"activity change, negative = inhibition"
Cc1ccccc1NCc1ccc([N+](=O)[O-])s1,"inconclusive: 79.4 µM [inhibitor, partial curve]",–
Cc1sc2nc(CN3CCCC3)nc(N3CCN(S(=O)(=O)c4cccs4)CC3)c2c1C,"inconclusive: 89.1 µM [inhibitor, partial curve]",–
O=C(c1ccc(F)cc1)N1CCCC(c2nc(-c3ccncc3)no2)C1 (centres undefined),–,inactive: -20.3%
CCC(NC(=O)CCc1c(C)c2cc3c(C)c(C)oc3cc2oc1=O)C(=O)N[C@@H](Cc1ccccc1)C(=O)O (some centres undefined),"inconclusive: 50.1 µM [inhibitor, partial curve]",–
Cc1c(C(=O)N2CCN(C3CCS(=O)(=O)C3)CC2)oc2ccc(Cl)cc12 (centres undefined),–,inactive: 0.676%
CCOC(=O)c1c(Nc2ccc(C)cc2)nnc(-c2ccccc2)c1-c1ccccc1,"inconclusive: 20 µM [inhibitor, full curve]",–
COc1cccc(N(C(=O)CNC(=O)c2ccco2)C(C(=O)NC2CCCCC2)c2ccncc2)c1 (centres undefined),–,inactive: -8.52%
Cc1ccc(NC2CCCN(C(=O)C3CCCC3)C2)cc1C (centres undefined),"inconclusive: 79.4 µM [inhibitor, partial curve]",–
c1ccc(-c2ccccn2)nc1,"inconclusive: 89.1 µM [inhibitor, single point]",–
COc1ccccc1OCC(=O)NNC(=O)C(=O)N1CCCC1,"inconclusive: 100 µM [inhibitor, single point]",–
O=c1cc(CO)oc(C(Nc2cccc([N+](=O)[O-])c2)c2ccccn2)c1O (centres undefined),active: 50.1 µM,–
CN1CCN(CCC(=O)N2c3ccccc3Sc3ccc(Cl)cc32)CC1,"inconclusive: 35.5 µM [inhibitor, partial curve]",–
Cc1cccc(OCC(=O)O/N=C(\N)c2ccccn2)c1,–,inactive: -16.4%
Cc1c2cc[n+](CCN3CCCCC3)cc2c(C)c2c1[nH]c1ccc(O)cc12,"inconclusive: 50.1 µM [inhibitor, partial curve]",–
COC(=O)c1ccc(NC(=O)CSc2ccccc2)cc1,active: 31.6 µM,–
Cc1n[nH]c(=O)n1-c1ccc(C(C)C)cc1,–,inactive: -2.28%
CCNC(=O)CN1C(=O)NC2(CCCCCC2)C1=O,"inconclusive: 100 µM [inhibitor, partial curve]",–
COc1ccc(C(=O)COC(=O)c2ccccc2O)c(OC)c1,"inconclusive: 56.2 µM [inhibitor, partial curve]",–
CCOc1ccc(C(=O)Nc2ccccc2N2CCCC2)cc1,"inconclusive: 56.2 µM [inhibitor, partial curve]",–
CCn1c2ccccc2c2nnc(N3CCN(c4cc(C)ccc4C)CC3)nc21,–,inactive: -12.2%
COc1cccc(N2CCN(Cc3ccco3)CC2)c1,active: 8.91 µM,–
CCCCCc1cc(=O)oc2c(C(CCN3CCCCC3)c3cc(OC)c(OC)c(OC)c3)c(OC)cc(OC)c12 (centres undefined),"inconclusive: 39.8 µM [inhibitor, partial curve]",–
CCC(=O)Nc1ccc2oc(-c3cccc(C)c3)nc2c1,"inconclusive: 3.55 µM [inhibitor, single point]",–
CC(C(=O)Nc1ccccc1C(=O)N1CCOCC1)N(c1ccccc1)S(C)(=O)=O (centres undefined),active: 39.8 µM,–
CSc1ncc(C(=O)Nc2ccccc2C(=O)c2ccccc2)c(C(F)(F)F)n1,–,inactive: -10.6%

SMILES,Potency,"activity change, negative = inhibition"
Nc1nc(Nc2cccc(Cl)c2)nc(NCc2ccco2)c1[N+](=O)[O-],"inconclusive: 44.7 µM [inhibitor, partial curve]",–
Fc1cc(F)cc(Nc2nc(Cl)nc(NC3CCCC3)n2)c1,inactive,–
CCCCC(=O)N=c1sc2cc(S(C)(=O)=O)ccc2n1C,–,inactive: -2.78%
CCNC(=S)N(CCc1c(C)[nH]c2ccc(C)cc12)Cc1ccco1,active: 63.1 µM,–
CN(C)c1ccc(NC(=O)COC(=O)c2ccc3c(c2)OCO3)cc1,"inconclusive: 25.1 µM [inhibitor, full curve]",–
O=C(NC1CCCCC1NC(=O)c1cccs1)c1cccs1 (centres undefined),–,inactive: -2.05%
O=C(NCc1ccccc1)c1ccc2c(=O)n(CC3CCCO3)c(=S)[nH]c2c1 (centres undefined),active: 89.1 µM,–
O=c1[nH]cc(N(CCO)CCO)c(=O)[nH]1,"inconclusive: 39.8 µM [inhibitor, partial curve]",–
O=C(CCN1C(=O)/C(=C/c2cccs2)SC1=S)N1CCCCC1,"inconclusive: 22.4 µM [inhibitor, full curve]",–
O=C1CN(C(=S)NC(=O)c2ccccc2[N+](=O)[O-])CCN1,"inconclusive: 89.1 µM [inhibitor, single point]",–
Cc1ccc(Nc2ncnc3c2nnn3Cc2ccccc2)cc1,–,inactive: -6.25%
CCOC(=O)c1cccc(NC(=O)COc2nsnc2N2CCOCC2)c1,"inconclusive: 31.6 µM [inhibitor, single point]",–
NC(=S)N/N=C1\CC(c2ccc3c(c2)OCCCO3)Oc2ccc(F)cc21 (centres undefined),"inconclusive: 28.2 µM [inhibitor, partial curve]",–
O=C(NN=Cc1cc(=O)[nH]c(=O)[nH]1)c1ccncc1,"inconclusive: 89.1 µM [inhibitor, partial curve]",–
Cc1c(Cl)cnc(NC(=O)COC(=O)CCC(=O)c2cccs2)c1Cl,"inconclusive: 15.8 µM [inhibitor, full curve, poor fit]",–
COc1cc(C(=O)Nc2cc(C)ccc2OCc2cc(=O)n3c(C)csc3n2)cc(OC)c1OC,–,inactive: -30.5%
COc1ccc(-c2nc3ccccc3c(=O)n2Cc2ccccc2)cc1OCc1ccc(NC(C)=O)cc1,"inconclusive: 50.1 µM [inhibitor, partial curve]",–
COC(=O)N/N=C/c1ccc(OC(=O)/C=C/c2ccco2)cc1,"inconclusive: 14.1 µM [inhibitor, partial curve, poor fit]",–
Cc1ccc(NCC(=O)N/N=C/c2ccc(C(=O)O)cc2)cc1,–,inactive: -6.62% [at 11.4 µM]
CCOc1ccc(-c2cc(OC(=O)c3ccc(F)cc3)c3c(C)oc(C)c3c(=O)c2)cc1,"inconclusive: 50.1 µM [inhibitor, partial curve, poor fit]",–
O=C(O)COc1c(F)c(F)c(C(F)(F)F)c(F)c1F,"inconclusive: 100 µM [inhibitor, single point]",–
COc1ccc2c(c1)OC[C@H]1[C@H]2N2C(=O)CN(Cc3ccco3)C(=O)[C@@]2(C)[C@H]1c1ccccc1,–,inactive: -31.7%
Cn1c(=O)c2c(nc(NNC(=O)C(F)(F)F)n2C)n(C)c1=O,"inconclusive: 35.5 µM [inhibitor, single point]",–
O=C1c2ccccc2C(=O)N1CCSc1n[nH]c(=S)s1,active: 17.8 µM,–
O=C(CSc1ccc(-c2ccco2)nn1)Nc1ccccc1,–,inactive: -25.3%

SMILES,Potency,"activity change, negative = inhibition"
Cc1cc(C(=O)C(C)OC(=O)C2=NNC(=O)CC2)c(C)n1-c1ccc(OC(F)F)cc1 (centres undefined),"inconclusive: 79.4 µM [inhibitor, single point]",–
Cc1cc(C)nc(NC2=NCC(=O)N2c2ccccc2)n1,"inconclusive: 89.1 µM [inhibitor, single point]",–
O=C(c1ccco1)N1CCN(Cc2ccccc2F)CC1,active: 28.2 µM,–
CCn1c(N)c(C(=O)NCc2ccco2)sc1=S,"inconclusive: 89.1 µM [inhibitor, partial curve]",–
CN(C)c1ccc(CN(C(=O)/C=C/c2ccco2)C2CCS(=O)(=O)C2)cc1 (centres undefined),"inconclusive: 50.1 µM [inhibitor, partial curve]",–
CC1=C(C(=O)O)N2C(=O)C(NC(=O)c3c(F)cccc3F)C2SC1 (centres undefined),–,inactive: -2.76%
COc1cc(OC)c(NC(=O)CN2C(=O)CCn3nc(-c4cccn4C)cc32)cc1Cl,"inconclusive: 50.1 µM [inhibitor, partial curve]",–
O=S(=O)(c1ccc(NC(=S)N2CCN(c3ccc(O)cc3)CC2)cc1)N1CCOCC1,"inconclusive: 89.1 µM [inhibitor, partial curve]",–
O=[N+]([O-])c1c(NCCCO)cc(N2CCCCCC2)c2nonc12,–,inactive: -16%
Fc1ccc(C2c3[nH]c4ccccc4c3CCN2CCCn2cccn2)cc1 (centres undefined),"inconclusive: 79.4 µM [inhibitor, partial curve]",–
COc1ccc(-n2nc(C(=O)N3CCC(C#N)CC3)c3c4ccccc4n(C)c3c2=O)cc1,–,inactive: -14.5%
Cc1cccc(NC(=O)CCC(=O)N/N=C/c2ccncc2)c1,"inconclusive: 25.1 µM [inhibitor, single point]",–
Cc1oc(C(C)(C)C)cc1C(=O)NC(Cc1ccccc1)C(=O)O (centres undefined),–,inactive: -21.1%
CCOc1ccc(NC(=O)C(=O)NCCc2csc(-c3ccc(F)cc3)n2)cc1,"inconclusive: 50.1 µM [inhibitor, partial curve]",–
CC(C)CC1NC(=O)N(CC(=O)Nc2cc(S(=O)(=O)N3CCOCC3)ccc2Cl)C1=O (centres undefined),–,inactive: 1.3%
CCCCn1c(SCn2nnc3ccccc3c2=O)nc2cc(S(N)(=O)=O)ccc21,–,inactive: -27.2%
COc1ccc(NC(=O)CSc2nc3c(c(=O)n2-c2ccccc2OC)SCC3)cc1,–,inactive: -27.8%
Cc1ccc(-n2ncc3c(N4CCCCCC4)ncnc32)cc1,–,inactive: 50.8%
CCN1CCN(CC2CC3C=CC2C3)CC1 (centres undefined),active: 1.26 µM,–
Cc1cc(C)n(-c2ccc(C(=O)Nc3cccc([N+](=O)[O-])c3)cc2)n1,–,inactive: -7.52% [at 11.4 µM]
Oc1cc(-n2cccn2)c(O)cc1-n1cccn1,active: 0.794 µM,–
Cc1ncc(N=Nc2ccccc2)c(-c2ccccc2)n1,active: 39.8 µM,–
O=C(Nc1ccccc1N1CCCC1)c1cc2ccccc2o1,"inconclusive: 17.8 µM [inhibitor, full curve, poor fit]",–
CC(=O)c1ccc(OCC(=O)Nc2ccc(N3CCCCC3)cc2)cc1,"inconclusive: 56.2 µM [inhibitor, partial curve]",–
